Measured values taken from patent US20240368282A1 (BIOSCEPTRE AUST, published 2024).

Biological target: T1, dysfunctional P2X7 receptor (human, UniProt Q99572 1-595)
T1 construct: Endogenous on cancer cell lines (MOLM-13, JeKo-1); also called nfP2X7; nfP2X7 receptor
T1 sequence: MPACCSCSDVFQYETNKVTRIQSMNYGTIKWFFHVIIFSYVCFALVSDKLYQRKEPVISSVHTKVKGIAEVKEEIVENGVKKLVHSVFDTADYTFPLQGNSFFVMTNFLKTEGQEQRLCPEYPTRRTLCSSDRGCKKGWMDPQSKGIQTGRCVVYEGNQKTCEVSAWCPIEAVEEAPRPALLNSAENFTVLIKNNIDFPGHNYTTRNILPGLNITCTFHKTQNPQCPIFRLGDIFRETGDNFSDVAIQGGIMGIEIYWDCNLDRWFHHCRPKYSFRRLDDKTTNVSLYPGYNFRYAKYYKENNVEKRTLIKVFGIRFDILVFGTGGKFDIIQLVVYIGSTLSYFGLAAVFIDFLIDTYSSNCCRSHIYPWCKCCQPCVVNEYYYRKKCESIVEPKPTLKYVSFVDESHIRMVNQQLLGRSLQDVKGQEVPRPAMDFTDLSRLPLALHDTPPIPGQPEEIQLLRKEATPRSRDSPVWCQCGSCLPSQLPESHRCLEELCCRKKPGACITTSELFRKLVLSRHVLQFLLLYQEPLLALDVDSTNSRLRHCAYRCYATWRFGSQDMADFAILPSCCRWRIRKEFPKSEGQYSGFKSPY
Assay: flow cytometry, anti-HIS-FITC, MOLM-13 cells
Protocol: Indirect staining of artificial proteins on MOLM-13 cells via anti-HIS staining. […] Histogram overlay of HIS-FITC positivity on MOLM-13. […] HIS-ab was used according to manufacturer with 1 μl per test, target cells were incubated with 50 μl of supernatant from Lenti-X™ 293T cells for 10 min at room temperature. Supernatant harvested 48 h after transfection.

binding result: binds
B1: Orchestration molecule OR1 (nfP2X7), single domain Fc fusion protein (Fc fusion)
chain: EVQLLESGGGLVQPGGSLRLSCAASGFTFRNHDMGWVRQAPGKGLEWVSAISGSGGSTYYANSVKGRFTISRDNSKNTLYLQMNSLRAEDTAVYYCAEPKPMDTEFDYRSPGTLVTVSS[human IgG1 Fc with changes and a few adjoining residues skipped]
notes: BIL03 VH single domain, IgG1 hinge-CH2-CH3 (SDIE), 6xHis; Tested as supernatant of transfected Lenti-X 293T cells
